Results from PubChem BioAssay AID1240 (Sanford-Burnham Center for Chemical Genomics, 2008).
In all, about 50,000 compounds went through this assay and about 800 (1.6%) showed an effect of 50% or more. This is one part of the list.

Biological target: Bcl-2-like protein 10 (Homo sapiens) (UniProt Q9HD36)
Test: Phenotype converters, Bcl-B/TR3 peptide binding displacement, primary biochemical FP (AID 1240);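 further: 0% = Bcl-B with tracer peptide and DMSO and 100% = tracer peptide lacking Bcl-B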
Conditions: GST-Bcl-B / FITC-TR3 peptide fluorescence polarization; stronger effect = higher value; compound at 3.75 mg/L

Chain of UniProt Q9HD36 (Q9HD36 whole entry, looked up): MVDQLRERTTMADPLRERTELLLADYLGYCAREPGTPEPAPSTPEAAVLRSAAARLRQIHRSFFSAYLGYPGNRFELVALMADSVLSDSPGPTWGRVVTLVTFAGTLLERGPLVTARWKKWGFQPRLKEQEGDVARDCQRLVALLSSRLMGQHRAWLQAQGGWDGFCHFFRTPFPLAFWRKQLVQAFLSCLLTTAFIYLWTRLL

| Compound | displacement |
| --- | --- |
| COC(=O)C1=C(C)N(C)C(=O)NC1c1cc(Br)c(O)c(OC)c1 (configuration not stated) | -1.5% |
| Br/C(=C\c1ccccc1)C1Nc2cccc3cccc(c23)N1 | 15.4% |
| CC(=O)N(C)c1ccc(NC(=O)COc2ccc(Cl)cc2)cc1 | 10.2% |
| C/C(=N\N1CCN(Cc2ccc(Cl)cc2)CC1)c1ccccc1O | -6.7% |
| CCOC(=O)C1=C(C)N=c2s/c(=C\c3cc(OC)ccc3OC)c(=O)n2C1c1ccccc1Cl (configuration not stated) | 18.2% |
| CCOc1ccc(/C=C2/SC(=S)NC2=O)cc1Cl | 11.7% |
| CC(C)Oc1ccc(C2CC(=O)N(C)C2=O)cc1 (configuration not stated) | 1.8% |
| CCOC(=O)c1cc2nc(-c3ccccc3)cc(C)n2n1 | 0.7% |
| O=C(NCc1ccncc1)c1cccs1 | -4.7% |
| CCOc1ccccc1NC(=O)CC1Sc2ccc(C(F)(F)F)cc2NC1=O (configuration not stated) | 0.8% |
| Cc1cccc(OCC(=O)Nc2ccc(C)cc2[N+](=O)[O-])c1 | -5.8% |
| c1ccc(-n2ncnc2-c2ccc3c(c2)OCO3)cc1 | 4.4% |
| Cc1ccc(N=Cc2ccccc2OCc2ccccc2)cc1C | -7.8% |
| N/C(=N\OC(=O)Cc1ccc(-c2ccccc2)cc1)c1ccccc1 | -4.8% |
| O=C(Nc1ccc2oc(-c3cccnc3)nc2c1)c1ccc(Br)o1 | 15.6% |
| Cc1cccnc1N1C(=O)C2C3c4ccccc4C(C)(c4ccccc43)C2C1=O (configuration not stated) | -3% |
| CCC(C)c1ccc(OCCOc2ccc(Br)cc2/C=N/n2cnnc2)cc1 (configuration not stated) | -13% |
| CCOc1ccccc1N(CC(=O)NC1CCCC1)S(=O)(=O)c1ccccc1 | 3.5% |
| CCN=C(NCC)SC1CC(=O)N(c2ccc(Cl)c(Cl)c2)C1=O (configuration not stated) | -5% |
| O=C(c1ccc(Cl)cc1)N1CCN(c2ccc([N+](=O)[O-])c3ncccc23)CC1 | 4.9% |
| Cc1c(N2C(=O)/C(=C/c3c(F)cccc3Cl)SC2=S)c(=O)n(-c2ccccc2)n1C | 5.3% |
| CCOC(=O)c1c(NC(=O)CC2Sc3ccc(C(F)(F)F)cc3NC2=O)sc(C)c1C (configuration not stated) | 12.4% |
| COc1ccc2c(Cl)c(C(=O)NCc3ccc4c(c3)OCO4)sc2c1 | 8.8% |

| Compound | displacement |
| --- | --- |
| Cc1ccc(O)c(NC(=O)CN2C(=O)c3ccccc3C2=O)c1 | -7.3% |
| Cc1csc(-c2cc3ccc(OCc4c(F)c(F)c(F)c(F)c4F)cc3oc2=O)n1 | 6.9% |
| CCN(CC)c1ccc(NC(=O)c2ccco2)cc1 | 5.2% |
| O=C(Nc1nc(-c2ccc(F)cc2F)cs1)c1cccc(F)c1F | -0.6% |
| Cc1ccc(N(CC(=O)O)S(=O)(=O)c2ccccc2)c(C)c1 | -3.4% |
| Cc1ccc(C(=O)NCc2ccncc2)cc1 | 2.5% |
| CC(C)c1ccccc1OCCCCN1CCOCC1 | 4.4% |
| CCC(=O)c1ccc(N2CCN(C(=O)c3ccc(F)cc3F)CC2)c(F)c1 | -11.8% |
| CC(C)(C)NC(=O)c1cc2c(ccc3ccccc32)oc1=O | -5.5% |
| CC(C)OC(=O)c1c(-c2ccccc2)csc1NC(=O)c1c(F)cccc1F | -2.7% |
| CCNc1nc(NCC)nc(Oc2ccc(C(=O)OC)cc2)n1 | -6.4% |
| Clc1ccc(Cn2nnc(-c3ccccc3Cl)n2)c(Cl)c1 | -8.4% |
| O=C(O)C(C(=O)O)C1c2ccccc2Oc2ccccc21 | 1.9% |
| O=C(/C=C/c1ccc(-c2ccccc2Br)o1)c1ccc(Cl)cc1 | 10.4% |
| O=[N+]([O-])c1ccc(NCCCN2CCOCC2)c(C(F)(F)F)c1 | -1.6% |
| O=C(O)CCCCCN1C(=O)C(=O)/C(=C(/O)c2ccc(Cl)cc2)C1c1ccccc1 (configuration not stated) | -0.4% |
| CCOc1cc(/C=C(/C(=O)c2ccc(C)cc2)c2nc3ccccc3o2)ccc1O | 12.2% |
| Cc1ccc(OCCNC(=O)c2cccc3ccccc23)cc1C | 13.3% |
| Cc1nnc(N/N=C/c2ccc(Br)cc2)[nH]c1=O | -3.3% |
| CCN(CC)CC#CCC(C(=O)c1ccccc1)C(=O)C(C)(C)OC (configuration not stated) | 0% |
| COc1ccc(C(=S)N2CCN(c3cccc(Cl)c3)CC2)cc1 | 19.1% |
| CC(=O)c1cccc(NC(=O)CSc2nncn2C)c1 | 9.5% |
| CCc1ccccc1N(CC(=O)O)S(C)(=O)=O | 4.5% |

| Compound | displacement |
| --- | --- |
| COc1ccc(C2Nc3ccccc3C(=O)N2Cc2ccco2)cc1COc1ccccc1F (configuration not stated) | -12.8% |
| Cc1cccc(NC(=O)C(=O)NCCc2ccc(F)cc2)c1C | 2.1% |
| CCCNC(=O)c1c(-c2ccccc2)noc1C | 4.4% |
| O=C(/C=C/c1ccc(Cl)cc1)c1ccc(NC(=O)c2cccnc2)cc1 | 9.8% |
| O=C(Nc1ccccc1C(=O)N1CCCC1)c1ccccc1 | 15% |
| COC(=O)c1c(NC(=O)CCC2CCCC2)sc2c1CCC2 | -4% |
| CCOc1ccc(N2C(=O)CC(Cc3cc(C)cc(C)c3)C2=O)cc1 (configuration not stated) | 13.2% |
| Fc1ccc(NC(=S)Nc2ccc(Br)c(Cl)c2)cc1 | -4.6% |
| Cc1cc(C)c(NC(=S)NC(=O)c2ccccc2C)c(C)c1 | 0.8% |
| NC1=NC(=O)C(Cc2ccccc2)S1 (configuration not stated) | -9.7% |
| COc1ccc(C(=O)N2CCN(Cc3ccc(OC)c(OC)c3OC)CC2)cc1OC | -1.3% |
| CCOc1cc(C(=O)Nc2cccc(NC(C)=O)c2)cc(OCC)c1OCC | 13.2% |
| O=C(CSc1ccccc1C(=O)O)c1ccc(-c2ccccc2)cc1 | -9.3% |
| O=C(Cc1ccccc1)Nc1ccc2nn(-c3ccc(Cl)cc3)nc2c1 | 10.1% |
| CC(=O)NC1=NN(C(C)=O)C(c2ccc(Cl)cc2Cl)S1 (configuration not stated) | 3% |
| O=C(CCC1CCCC1)Nc1cccc(Cl)c1 | -0.1% |
| Cc1cccc(NC(=O)c2ccc(Br)o2)n1 | -4.2% |
| CCc1cccc(CC)c1NC(=O)c1cccc(OC)c1 | -10.9% |
| Cc1cccc(N2CCN(C(=O)C3C4CCC(O4)C3C(=O)O)CC2)c1C (configuration not stated) | 0.3% |
| COc1ccc(C2/C(=C(\O)c3ccc([N+](=O)[O-])cc3)C(=O)C(=O)N2CCCCCC(=O)O)cc1 (configuration not stated) | -2% |
| CC(=O)Nc1ccccc1NC(=O)c1ccc(Br)cc1 | 8.2% |
| CCc1ccc(S(=O)(=O)Nc2ccc(OC(=O)c3ccc(C)cc3)cc2)cc1 | 14.6% |
| Cc1nonc1N=Cc1ccccc1O | 10.3% |

| Compound | displacement |
| --- | --- |
| CC1=C(C(=O)OCCc2ccccc2)C(c2ccc3c(c2)OCO3)C2=C(CC(C)(C)CC2=O)N1 (configuration not stated) | -3.8% |
| COc1ccccc1P(=O)(c1ccccc1)c1ccccc1 | 3.8% |
| CCOC(=O)/C=C/C(=O)Nc1nc(-c2ccc(C)cc2)cs1 | -3.9% |
| CCOC(=O)/C(C#N)=C\c1cc(OC)c(OC)cc1[N+](=O)[O-] | 5.7% |
| Cc1ccc(/C=N/NC(=O)C2=NNC(=O)C2C)o1 (configuration not stated) | -17% |
| CC(C)OC(=O)c1c(NC(=O)c2ccc(Br)o2)sc2c1CCCCC2 | -8.9% |
| Cc1ccc(-c2csc(N)c2C(=O)OC(C)C)cc1 | -1.9% |
| CCc1nc(-c2ccccc2)nc(C)c1C | 16.1% |
| COc1ccc(NC(=S)NC(NC(=O)c2cccc([N+](=O)[O-])c2)C(Cl)(Cl)Cl)cc1 (configuration not stated) | 11.9% |
| O=C(CSc1nc2ccccc2s1)NNC(=S)Nc1ccc(Cl)cc1 | -8.2% |
| CCOC(=O)C1=C(C)N=c2s/c(=C\c3ccc(C)cc3)c(=O)n2C1c1ccc(OC)cc1 (configuration not stated) | -6.4% |
| O=C(Nc1ccc(Br)cn1)c1cc2n(n1)C(C(F)(F)F)CC(c1ccccc1)N2 (configuration not stated) | 5.3% |
| CN(C)CCNC(=O)COc1cccc2ccccc12 | -5.3% |
| O=S(=O)(Nc1cccc(I)c1)c1ccc2ccccc2c1 | -0.6% |
| COc1ccc(N(CC(=O)NCc2ccco2)S(=O)(=O)c2ccccc2)cc1 | -4.5% |
| COc1ccc(OC)c(/C=N\N2CCN(c3ccccc3OC)CC2)c1 | 4% |
| CCN(C(=O)c1ccc(OC)cc1)c1ccccc1 | 0.8% |
| O=C(/C=C/c1ccccc1)NNc1ccc([N+](=O)[O-])cc1 | -15.2% |
| O=C1NC(=S)NC(=O)C1=Cc1cccc(Cl)c1Cl | 10.6% |
| CCc1cc2c(NCCc3ccc(OC)c(OC)c3)ncnc2s1 | -0.9% |
| CCCC(C)NC(=O)c1ccc(-c2ccccc2)cc1 (configuration not stated) | -1.9% |
| O=C(Nc1ccc(I)cc1Cl)c1cccc(Cl)c1Cl | 11.2% |
| COC(=O)c1c(N)sc(C)c1-c1ccc(Cl)cc1 | -1.3% |

| Compound | displacement |
| --- | --- |
| CC1=C(C(=O)Nc2ccc(Br)cc2)C(c2ccccc2)NC(=S)N1 (configuration not stated) | 9.4% |
| CC1(C)C(c2cccs2)=[N+]([O-])C2(CCCCC/C2=N\O)N1O (configuration not stated) | 8.9% |
| O=C(NC(=S)N1CCN(CCN2C(=O)c3cccc4cccc(c34)C2=O)CC1)c1ccc2c(c1)OCO2 | -10.4% |
| CCOc1ccc(C2/C(=C(\O)c3ccc(F)cc3)C(=O)C(=O)N2CCCCCC(=O)O)cc1 (configuration not stated) | -9.7% |
| COc1ccccc1/C=C1\SC(=S)N(CCC(=O)O)C1=O | -4.9% |
| Cc1onc(-c2c(Cl)cccc2Cl)c1C(=O)NCc1ccc(S(N)(=O)=O)cc1 | 7.1% |
| COc1ccc(C2C(C(C)=O)=C(O)C(=O)N2c2nc3ccccc3s2)c(OC)c1 (configuration not stated) | 9.5% |
| CCOC(=O)C1=NNC(C(=O)c2ccccc2)C1c1cccc(Br)c1 (configuration not stated) | -9.5% |
| COC(=O)COc1ccc2c(=O)c(Oc3ccccc3Br)c(C(F)(F)F)oc2c1 | 1.9% |
| COc1ccc(S(=O)(=O)N2CCN(C(=O)c3cccc(F)c3)CC2)cc1 | 7% |
| Cn1cnc2cc(Nc3nnc(-c4ccccc4)c4ccccc34)ccc21 | 3.5% |
| COc1ccccc1C1/C(=C(/O)c2ccccc2)C(=O)C(=O)N1c1cccc([N+](=O)[O-])c1 (configuration not stated) | 6.1% |
| CCC(=Nc1ccccc1C)C1=C(O)CC(C)(C)CC1=O | 14% |
| COc1ccc(-c2cc(C(F)(F)F)n3nc(C(=O)N4CCCCC4)c(Br)c3n2)cc1 | -2.1% |
| Cc1ncc(C23CC4CC(CC(C4)C2)C3)[nH]1 | -7.8% |
| O=C1NC(=Nc2cccc(Cl)c2Cl)S/C1=C\c1ccc(F)cc1 | -4.9% |
| O=C(CN1CCOCC1)Nc1nc2ccccc2s1 | -8% |
| O=C1Nc2c(S(=O)(=O)Nc3ccc(Cl)cc3)cc(S(=O)(=O)Nc3ccc(Cl)cc3)c3cccc1c23 | 6.3% |
| CC(C(=O)N1CCN(c2ccccc2)CC1)N1C(=O)c2ccccc2C1=O (configuration not stated) | -3% |
| CCOC(=O)c1ccc2c(c1)C1C=CCC1C(c1cccc3ccccc13)N2 (configuration not stated) | 4.6% |
